# Reference: PubChem BioAssay AID1347430 (National Center for Advancing Translational Sciences (NCATS), 2020)
# Out of some 91,000 compounds screened, about 130 (0.14%) were called active. Inconclusive results, whose numbers are uncertain, are shown with a selection of clear calls. The call rests on the fitted dose curve; in most records, active means well fitted inhibition curve with a large enough effect; inconclusive means small, poorly fitted or top-dose-only effect; inactive means flat fitted curve, though single readings scatter. Where the call is inconclusive, the potency comes from a doubtful curve fit.
# Tested on: Uracil-DNA glycosylase
# Assay: Primary qHTS assay for inhibitors of Activation Induced Cytidine Deaminase (AID): UDG Counterscreen signal; further: nearly all actives have a fitted effect of over 65% in size
# Conditions: FRET deamination/UDG coupled assay, UDG read, 4 h; activity change, negative = inhibition: at 115 µM (top of the series)
# Excerpt: Assay Provider (PI) Patricia Gearhart Ph.D.
# National Institute on Aging
# National Institute of Health (NIH), Bethesda, MD
# Assay Provider (PI) Rahul Kohli Ph.D.
# Perelman School of Medicine
# University of Pennsylvania, Philadelphia, PA
# Activation-Induced Deaminase (AID) is a cytosine deaminase which converts cytosine into uracil within stretches of ssDNA. The presence of uracil in DNA initiates a cascade of mutagenic DNA repair to introduce point mutations and DNA double strand breaks. Specific targeting of AID to the immunoglobulin heavy chain loci (Igh) promotes mutagenesis in the antibody variable region for somatic hypermutation (SHM) or switch regions leading to class switch recombination (CSR). However, AID also plays a role in accumulating unnecessary mutations across the genome. Mis-targeting of AID results in the initiation of tumor development and leads to greater drug resistance among cancer cells when continually expressed. To identify an AID inhibitor, a small molecule library will be screened in collaboration with NCATS core facility at NIH. To confirm biological function, inhibitors will be examined in an in vitro murine B-cell activation assay and subsequent secondary validation screens. Top molecules will be further screened to identify inhibitory efficacy against a wild type primary splenocytes assay. Using these approaches, we hope to identify a small molecule with great efficacy and low toxicity for use as a molecular probe to further characterize AID's intricacies, or even as a therapeutic.
# A FRET based analysis of cytosine deamination, was developed to identify potential inhibitors of AID catalytic activity. This screen has two signal output, Read 1 evaluates the AID inhibition response. The second readout (Read 2) evaluates UDG response and is uses as a counterscreen to exclude false positive inhibitors. Inhibition in AID and inactivity in the UDG signal is the desired outcome for this assay.
# SEQUENCE No. (e.g., 1, 2, 3, etc.); […] (e.g., Cells, Incubation, Reagent, etc.); VALUE; DESCRIPTION
# 1a; Reagent; 3 uL; [4/3x] 1 uM AID/2.67 U/mL UDG
# 1b; Reagent; 3 uL; 2 U/mL UDG
# 1c; Reagent; 3 uL; 1 uM AID
# 2a; Compound; 46 nL; Follow-up plates (0.64 uM - 10 mM)
# 2b; Control; 46 nL; ATA ([…] - 10 mM)
# 3; Time; 10 min; incubation at room temperature
# 5; Time; 4 hr; incubation at room temperature
# 6; Reagent; 4 uL; [2x] 250 mM NaOH
# 7; Time; 15 sec; centrifuge at 1000 rpm
# 8; Time; 30 min; incubation at room temperature
# 9a; Detection; fluorescence (Read 1: AID); EnVision (PerkinElmer) plate reader, 540 excitation and 590 emission filters
# 9b; Detection; fluorescence (Read 2: UDG); EnVision (PerkinElmer) plate reader, 560 excitation and 665 emission filters
# NOTES (numbers refer to sequence above)
# 1a; Reagents were dispensed in a medium-binding black solid-bottom Greiner plates (789176F) using a BioRptr liquid dispenser. Dispense 3 uL of [4/3x] 1 uM AID (provided by Kohli lab) and [4/3x] 2 U/mL UDG (NEB M0280L) into columns 1, 2, 5 to 48.
# 1b; Dispense 3 uL of [4/3x] 2 U/mL UDG into column 3.
# 1c; Dispense 3 uL of [4/3x] 1 uM AID into column 4.
# 2a; Compound (7-points [uM] (0.64; 3.2; 16; 80; 400; 2,000; 10,000; 20,000) double pin-transferred (Dip Factor = 2) using the Kalypsys (Wako USA) pintool equipped with a 1536 pinhead for a final concentration range of 7.32 nM - 114 uM.
# 2b; 10 mM Aurintricarboxylic Acid (Sigma A1895) (ATA, 8-point, n = 2, 1:2.5 dilution in column 2) double pin-transferred (Dip Factor = 2) using the Kalypsys (Wako USA) pintool equipped with a 1536 pinhead for a [final] range of 186 nM - 114 uM.
# 3; Room temperature incubation.
# 4; Dispense 1 uL of substrate mixture from the Kohli lab [4x] […] DJC20 and [4x] 250 nM DJC23 into columns 1 to 48 .
# 5; Room temperature incubation.
# 6; Dispense 4 uL of substrate mixture [2x] 250 mM NaOH into columns 1 to 48.
# 7; Centrifugation step to remove bubbles.
# 8; Room temperature incubation
# 9a; Fluorescence signal (column label AID) was read using the EnVision plate reader. […]
# On the % scale 0 is the no-effect control and ±100 the full control effect; potency means the concentration at half of the fitted maximal effect; tags describe the fitted curve by direction and shape.
Structure (SMILES),Potency,"activity change, negative = inhibition"
COc1ccc(-n2nnc(C(=O)NCc3ccccc3)c2N)cc1OC,"inconclusive: 89.1 µM [inhibitor, single point]",–
Cn1c(CC(=O)Nc2ccc(Cl)cc2)nnc1SCC(=O)NC12CC3CC(CC(C3)C1)C2,"inconclusive: 89.1 µM [inhibitor, single point]",–
Cc1ccc2nc(-c3ccccc3)cc(C(=O)NCC(=O)NC3CC3)c2c1,–,inactive: 10.5%
Cc1cc(C)n2nc(SCC(=O)Nc3cccc(C(F)(F)F)c3)nc2n1,–,inactive: 2.95%
Cc1ccc(CNC2C3CC4CC(C3)CC2C4)cc1 (stereo not drawn),–,inactive: 1.52%
Cc1sc2c(c1C)c(=O)n(-c1cccc(C(F)(F)F)c1)c(=O)n2Cc1ccc(F)cc1,"inconclusive: 39.8 µM [inhibitor, partial curve, poor fit]",–
CCn1c(=O)cc(SCC(=O)N2CCN(c3cc(C)ccc3C)CC2)c2ccccc21,"inconclusive: 50.1 µM [inhibitor, partial curve, poor fit]",–
N=C(N)c1cc(N)cc(C(=N)N)c1,–,inactive: -0.857%
CCOC(=O)c1c(C)[nH]c(C)c1S(=O)(=O)NCC(=O)N(C)c1ccc(C)c(C)c1,"inconclusive: 89.1 µM [inhibitor, partial curve, poor fit]",–
COc1ccc(Cn2c(SCc3ccc(C(=O)NCCc4ccccc4)cc3)nc3cccnc32)cc1,"inconclusive: 89.1 µM [inhibitor, single point]",–
Cc1ccc(/C(O)=C2\C(=O)C(=O)NC2c2ccc(C)cc2)cc1 (stereo not drawn),–,inactive: -11.5%
CC(Sc1nnc(-c2cccs2)n1C1CC1)C(=O)N1CCc2ccccc2C1 (stereo not drawn),–,inactive: -3.94%
O=C(c1cc(-c2ccc(Cl)cc2)on1)N(Cc1cccc(F)c1)Cc1ccco1,"inconclusive: 100 µM [inhibitor, single point]",–
COc1ccc(-c2cc(C(=O)Nc3ccc4c(c3)OCO4)no2)cc1OC,"inconclusive: 89.1 µM [inhibitor, single point]",–
CCCC(=O)n1nc(NCc2ccc(OCC)cc2)nc1NCc1ccc(OCC)cc1,–,inactive: 5.33%
CCC(C)(C#N)NC(=O)c1ccc2c(c1)CCC2 (stereo not drawn),–,inactive: -1.08%
COc1ccccc1CNc1nc2ccccc2c2nc(-c3cccnc3)nn12,"inconclusive: 89.1 µM [inhibitor, single point]",–

Structure (SMILES),Potency,"activity change, negative = inhibition"
COc1ccc(CCNC(=O)c2cccc(-n3c(C)nc4cccnc43)c2)cc1OC,"inconclusive: 89.1 µM [inhibitor, single point]",–
COc1cccc(NC(=O)CCc2c(C)nc3c4cccnc4nn3c2C)c1,"inconclusive: 79.4 µM [inhibitor, partial curve, poor fit]",–
CC(=O)c1ccc(NC(=O)CC2Nc3cccc4cccc(c34)NC2=O)cc1 (stereo not drawn),"inconclusive: 89.1 µM [inhibitor, partial curve, poor fit]",–
Cc1cccc(NC(=O)CN2C(=O)c3cccnc3Oc3ccc(Cl)cc32)c1C,"inconclusive: 79.4 µM [inhibitor, single point]",–
Cc1cc(C)c(C(=O)Nc2ccccc2C)c(SCC(=O)NC2CCCCC2)n1,–,inactive: -4.72%
Cc1nc2ccccc2c(=O)n1-c1ccc(NC(=O)c2ccc([N+](=O)[O-])cc2)cc1,"inconclusive: 100 µM [inhibitor, partial curve, poor fit]",–
Nc1cc(=O)[nH]c(SCc2c(F)cccc2Cl)n1,–,inactive: 9.97%
COc1cc(OC)cc(C(=O)Nc2ccc3c(c2)N(C2CCCC2)C(=O)c2ccccc2S3)c1,"inconclusive: 100 µM [inhibitor, partial curve, poor fit]",–
CCCCOc1cccc(C(=O)Nc2ccc3oc(-c4cccnc4)nc3c2)c1,"inconclusive: 79.4 µM [inhibitor, partial curve]",–
O=C(NCc1ccc2c(c1)CCN2C(=O)c1ccc(F)cc1)c1ccco1,"inconclusive: 89.1 µM [inhibitor, single point]",–
CCOc1ccc(C(=O)Nc2ccc(-n3nncc3-c3ccccc3)cc2)cc1OCC,"inconclusive: 56.2 µM [inhibitor, partial curve, poor fit]",–
COc1c(Cl)cc(C(=O)N(Cc2ccc(C)o2)C2CCS(=O)(=O)C2)cc1Cl (stereo not drawn),active: 89.1 µM,–
Cc1oc(-c2cccc(Cl)c2)nc1CN1CCCC(C(=O)N2CCN(c3ccc(F)cc3)CC2)C1 (stereo not drawn),"inconclusive: 89.1 µM [inhibitor, partial curve, poor fit]",–
CCCN(CCC)CCCNC(=O)Cn1cc2c(n1)-c1c(oc(C(=O)N3CCCC3)c1C)CC2,"inconclusive: 89.1 µM [inhibitor, single point]",–
CCc1cccc(NC(=O)c2nc(-c3ccncc3)no2)c1,"inconclusive: 89.1 µM [inhibitor, single point]",–
COc1ccc(-c2c3c(nc4sc(C(=O)Nc5ccc(Cl)cc5)c(N)c24)CC(C)(C)CC3=O)cc1,"inconclusive: 22.4 µM [inhibitor, partial curve, poor fit]",–
